± gives the standard deviation. Only a part is listed here, and it is no random draw.
Test system: MIWI (PIWIL1) piRISC loaded with L1MC piRNA (30 nt)
Test: pre-steady-state target cleavage rate (min^-1); MIWI and MILI are mouse PIWI proteins and EfPiwi is from a freshwater sponge; tags in brackets are library labels; higher = faster piRNA-guided slicing of the target
Details: guide: L1MC piRNA 5'p-UAACUAAAUACUAUGCAAGCUGUAGGUCCU
Procedure, shortened: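 Cleave-'n-Seq reactions paired 0.1 nM transcribed, DNA-blocked target RNA library with 1 nM active affinity-purified piRISC holding one synthetic guide, plus or minus 500 nM GTSF1 partner protein, in HEPES–potassium acetate buffer at 33 °C for 0–8 or 0–960 min. After sequencing of uncleaved targets and normalisation to depth and weakly complementary targets, the pre-steady-state cleavage rate was taken from a burst-and-steady-state fit. Three trials were pooled, and k3 was capped at 0.0001 min^-1.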

[1] = auxiliary factor: 500 nM mouse GTSF1
[2] = auxiliary factor: none (no GTSF1)

Sequence	pre-steady-state target cleavage rate [1]	pre-steady-state target cleavage rate [2]
AGGUCCUACAGCUUGCAUAGAAUUUAGUUA	0.501 ± 0.03	0.0247 ± 0.0074
UGGACCUACAGGAUGCAUAGUAUUUAGUAA	0.941 ± 0.08	0.01 ± 0.0022
UCCUGCUACAGCAUGCAUUGUAUUUAGUUA	0.719 ± 0.06	0.00906 ± 0.0033
AGGACCUACAGCUUGCAUAGUAUUUAUGUUA	0.662 ± 0.057	0.0656 ± 0.013
UCCACCUACAGCUUGCAUAGAAUUUAGUAA	0.305 ± 0.04	0.0116 ± 0.0027
UCCUGCUACUGCUUGCAUAGUAUUUACAAA	0.0981 ± 0.019	0.0026 ± 0.0021
UGGACCUACAGCUUGCAUACUAUUUAGAAA	0.113 ± 0.022	0.00607 ± 0.0025
UCCUGGAUGAGCUUGCAUAGUAUUUAGCUA	0.0101 ± 0.0052	0.00559 ± 0.0027
UCCUGCUACAGCUUGGAUAGUAUUUUGUUA	0.711 ± 0.062	0.022 ± 0.0045
UGGAGCUACAGCUUGCAUAGUAUAUAGUUA	0.742 ± 0.05	0.0311 ± 0.0061
UCCUGGUAACAGCUUGCAUAGUAUUUAGUUA	0.766 ± 0.031	0.0948 ± 0.023
UCCUGGAUGAGCUAGCAUAGUAUUUACUUA	0.347 ± 0.065	0.0108 ± 0.0032
UCCUGGUACAGCUUGCAUAGGAUUUAGUUA	0.0182 ± 0.0045	0.0083 ± 0.0024
AGGACCUACUAGCUUGCAUAGUAUUUAGUUA	0.655 ± 0.033	0.0598 ± 0.011
UCCUGGUACACCUAGCAUAGUAUUUAGUUA	0.278 ± 0.063	0.00414 ± 0.0028
UGGACCUACAGCUUGCAUAGUAUUUAGAUA	0.445 ± 0.039	0.0386 ± 0.0082
UCGUCCUACAGGUUGCAUAGUAUUUAGUUA	1.06 ± 0.044	0.0288 ± 0.005
ACCACCUACAGCUUGCAUAGUAUUUAGAAA	0.462 ± 0.065	0.00839 ± 0.004
UCCUGCUACAGGUUGGAUAGUAUUUAGUUA	0.916 ± 0.092	0.0193 ± 0.0033
AGGACCUACAGCUUGCAUAGAAUUUAGAAA	0.378 ± 0.053	0.00817 ± 0.0038

Sequence	pre-steady-state target cleavage rate [1]	pre-steady-state target cleavage rate [2]
UCGACCUACAGCAUGCAUAGUAUUAAGUUA	0.964 ± 0.058	0.0103 ± 0.0026
AGGACCUACAGCUAGCAUUGUAUUUAGUUA	0.678 ± 0.037	0.0101 ± 0.0028
UCCUCCUACACCUUGCUUAGUAUUUAGUUA	0.807 ± 0.056	0.0231 ± 0.0042
UCCUGGAUGAGCAUGCAUAGUAUUUUGUUA	0.214 ± 0.027	0.00621 ± 0.0023
UCCUGGAUCAGCUAGCAUAGAAUUUAGUUA	0.138 ± 0.013	0.00723 ± 0.0031
AGGUCCUACAGCUUGCAUAGUUUUUAGUUA	0.412 ± 0.022	0.0402 ± 0.0081
UCGAGGAACAGCUUGCAUAGUAUUUAGUAA	1.05 ± 0.11	0.0574 ± 0.012
UCCUGGUACAGCUGGCAUAGUAUUUAGUUA	0.643 ± 0.037	0.0205 ± 0.0049
UGGACCUACAGCUUGCCAUAGUAUUUAGUUA	0.242 ± 0.032	0.00472 ± 0.0025
UCCUGGUACAGCUUGAUAGUAUUUAGUUA	0.217 ± 0.022	0.00692 ± 0.0028
UGGACCAUCAGCUUGCAUAGUAUUUAGAAA	0.408 ± 0.033	0.0117 ± 0.0042
UCCAGGUACAGCUUGCAUAGUAUUUUCAAA	0.208 ± 0.036	0.00276 ± 0.0023
UCCUGGAACUGCUUGCAUUGUAUUUAGUUA	0.361 ± 0.025	0.0171 ± 0.0056
AGGACCUACAGGUUGCAUAGUUUUUAGUUA	0.271 ± 0.018	0.0236 ± 0.0037
UCCUGCUACACCUUGCAUAGUAUUUAGAUA	0.234 ± 0.053	0.012 ± 0.0027
UCCUGGAUCAGCUUGCUUAGUAUAUAGUUA	0.323 ± 0.031	0.0142 ± 0.0043
AGGACCUACUGCUUGCAUAGUAUAUAGUUA	0.687 ± 0.051	0.0381 ± 0.0072
UCCUGGAUGUGCUUGCAUAGUAUUUAGUAUA	0.205 ± 0.023	0.0114 ± 0.0039
AGGACCUACAGCUUGCAUAGUAUUUAGUAA	1.07 ± 0.087	0.0842 ± 0.018
UCCUGCUACAGCUUGCAAAGUAUUUAGAAA	0.319 ± 0.043	0.00338 ± 0.0032

Sequence	pre-steady-state target cleavage rate [1]	pre-steady-state target cleavage rate [2]
UCCUGGAUGAGCUAGCAUAGUAAUUAGUUA	0.0848 ± 0.0088	0.00519 ± 0.0024
UCCUGGUACAGCUUGGAAAGUAUUUAGUUA	0.388 ± 0.035	0.00594 ± 0.0024
UCCUGGAUCAGCUUGCAUAGUAUUUCGUUA	0.443 ± 0.051	0.0217 ± 0.0049
UCCUGCUACAGGUUGCAUAGUAUAUAGUUA	0.819 ± 0.094	0.00923 ± 0.0028
UCGACCUACAGCUUGCAAAGUAUUAAGUUA	0.777 ± 0.051	0.00875 ± 0.0026
UCGAGCUACAGCUUGCAAAGUAUUUAGUUA	1.17 ± 0.044	0.0367 ± 0.0083
UCCUCCUACAGCUUGCAUAGUAUUUAUUUA	0.382 ± 0.029	0.0175 ± 0.003
UCCUCCAACAGCUUGCAUAGAAUUUAGUUA	0.394 ± 0.036	0.0218 ± 0.0054
UCCACCUACAGGUUGCAAAGUAUUUAGUUA	1 ± 0.04	0.0166 ± 0.0038
UCCUGGAUGAGCAUGCUUAGUAUUUAGUUA	0.0871 ± 0.0071	0.00385 ± 0.0019
UCCUGGAACAGCUUGCGUAGUAUUUAGUUA	1.43 ± 0.087	0.0397 ± 0.0099
AGGACCUACAGCUUGCAUAGUAUCUUAGUUA	0.944 ± 0.066	0.0784 ± 0.02
AGGACCUACAGGAUGCAUAGUAUUUAGUAA	0.783 ± 0.079	0.0141 ± 0.0026
AGGACCAACAGCUUGCAUAGUUUUUAGUUA	0.46 ± 0.023	0.0565 ± 0.011
AGGACCUACAGCUUGCAUAGUAGUUAGUUA	0.671 ± 0.061	0.0316 ± 0.0066
UGGACCUAGAGCUUGCAUAGUAUUUAGUUA	1.03 ± 0.073	0.0561 ± 0.0095
AGGACCUACAGCAUGCAUAGUAUUUACUUA	0.609 ± 0.056	0.0594 ± 0.011
UCCUGCUACAGCUUGCAUUCUAUUUAGUUA	0.224 ± 0.021	0.00933 ± 0.0034
UCCUGCUACAGCUUCGAUAGUAUUUAGUUA	0.575 ± 0.047	0.00314 ± 0.0022
UCCUGGAUGUGCAUGCAUAGUAUUUAGAUA	0.0193 ± 0.0075	0.0033 ± 0.0028
